Publication PMC6919601, “Identification of Plasmodium dipeptidyl aminopeptidase allosteric inhibitors by high throughput screening” (PLoS ONE, 2019)
Hit rate of the full screen: of about 110,000 compounds, about 230 (0.21%) showed an effect of 50% or more. The list shows a part of the results.

target: DPAP1 (Plasmodium falciparum, UniProt Q8IIJ9); experiment: primary screen, percent inhibition; read by cleavage of a fluorogenic dipeptide substrate; higher = more effect of the substance; parameters: species or system P. falciparum D10 trophozoite lysates; single well
Sequence (Q8IIJ9 whole entry, looked up): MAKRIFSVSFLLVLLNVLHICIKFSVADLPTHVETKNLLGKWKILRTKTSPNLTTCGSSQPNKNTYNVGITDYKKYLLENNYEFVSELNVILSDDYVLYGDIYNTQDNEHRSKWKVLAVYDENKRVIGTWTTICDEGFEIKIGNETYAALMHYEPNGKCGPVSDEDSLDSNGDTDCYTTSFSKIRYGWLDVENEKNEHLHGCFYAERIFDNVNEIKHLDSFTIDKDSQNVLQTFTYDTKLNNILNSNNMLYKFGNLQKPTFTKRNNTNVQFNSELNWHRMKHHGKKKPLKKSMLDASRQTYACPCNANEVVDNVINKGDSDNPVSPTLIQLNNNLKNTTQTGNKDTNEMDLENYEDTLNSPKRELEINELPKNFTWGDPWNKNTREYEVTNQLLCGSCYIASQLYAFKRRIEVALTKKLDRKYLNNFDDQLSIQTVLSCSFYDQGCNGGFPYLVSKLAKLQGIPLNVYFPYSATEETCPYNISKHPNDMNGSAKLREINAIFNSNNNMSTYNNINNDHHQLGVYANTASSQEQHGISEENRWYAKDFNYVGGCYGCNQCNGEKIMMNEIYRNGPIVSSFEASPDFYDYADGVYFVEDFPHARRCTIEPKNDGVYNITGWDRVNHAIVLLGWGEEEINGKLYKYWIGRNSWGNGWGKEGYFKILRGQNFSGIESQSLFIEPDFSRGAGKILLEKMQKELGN
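Also: 30 min substrate incubation versus DMSO and 10 µM JCP410 controls.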

SMILES	% Inhibition @ 10 uM
CCc1sc(NC(=O)c2cc3ccccc3oc2=O)nc1-c1cccs1	2.44%
CCOc1ccc(Br)cc1/C=C/c1[nH]c(=O)[nH]c(=O)c1[N+](=O)[O-]	0.98%
CC(=O)c1cccc(NC(=O)c2cc(NC(=O)c3ccccc3)cc(NC(=O)c3ccccc3)c2)c1	-0.693%
Cc1c(C(=O)O)c(C)n(C)c1-c1ccccc1	-5.21%
COc1ccc(N(CC(=O)N2CCCCCC2)S(=O)(=O)c2ccccc2)cc1OC	1.47%
COc1ccccc1-n1c(S)nnc1C12CC3CC(CC(C3)C1)C2	-0.0626%
O=C(O)C1CC=CCC1C(=O)Nc1ccc(Cc2ccncc2)cc1 (stereo not shown)	-4.89%
COc1ccc(CC(=O)N2N=C(C)CC2(O)c2ccncc2)cc1 (stereo not shown)	-1.36%
N#Cc1ccc(NC(=O)C2c3ccccc3Oc3ccccc32)cc1Cl	5.05%
CSc1nsc(NC(=O)OCc2ccc(Cl)cc2)n1	-5.72%
Cc1ccc2cc(C)c(NCCO)nc2c1	5%
Nc1[nH]ncc1-c1ccc(-c2ccccc2)cc1	-6.67%
CCN1CCN(c2nn3c(=O)c4c5c(sc4nc3c3ccccc23)CCCC5)CC1	9.09%
COc1cc(C2Nc3ccccc3N=C3CC(c4cccs4)CC(O)=C32)cc(OC)c1O (stereo not shown)	-2.77%
CS(=O)(=O)N(CC(=O)N1CCN(c2ccccc2F)CC1)C1CCCCC1	-2.74%
CC(C)(C)c1ccc(-c2nc(-c3nonc3N)no2)cc1	-2.68%
O=C(COc1ccc(Cl)cc1Cl)Nc1cccc(C(F)(F)F)c1	-5.62%
CCN(CC)c1ccc(/C=C2\C(=O)N(c3nnc(C)c(O)n3)N=C2C)cc1	3.61%
COCCCNc1ncnc2c1cnn2C	3.65%
CCc1ccc(CNC(=O)CCC(=O)N2CCSc3ncccc32)cc1	0.687%
O=C(c1ccc2ccccc2c1)N1CCCC1	0.215%
O=C(O)CCNC(=O)/C(=C/c1ccccc1)NC(=O)c1ccco1	-1.52%

SMILES	% Inhibition @ 10 uM
O=C1ON=C(c2ccccc2)/C1=C/c1ccc(O)c(O)c1	0.222%
O=C(NCc1cccs1)C1CCN(S(=O)(=O)N2CCC3(CC2)OCCO3)CC1	3.79%
CC1=C(C(=O)c2ccccc2)C(NC(=O)c2ccc(F)cc2)(C(F)(F)F)C(=O)N1Cc1ccccc1 (stereo not shown)	-2.63%
CCCN1C(C(=O)c2ccccc2)=C(OC(=O)c2ccccc2Cl)c2ccccc2S1(=O)=O	-2.99%
COc1cccc(C(=O)Nc2nnc(CCS(=O)(=O)c3ccc4ccccc4c3)s2)c1	4.54%
CC(=O)c1ccc(N2CCN(Cc3sccc3C)CC2)cc1	-1.48%
CCc1sc(NC(=O)CCC(=O)O)nc1-c1cc2ccccc2oc1=O	3.7%
O=C(O)/C=C/C(=O)Nc1cccc2c(NC(=O)/C=C/C(=O)O)cccc12	5.53%
CC1CN(C)CC(C)(C)C1(O)c1ccccc1 (stereo not shown)	4.54%
C=CCNC(=O)/C(C#N)=C/c1c(Oc2ccccc2)nc2c(C)cccn2c1=O	2%
COc1cc(/C=C2\C(=O)ON=C2C)cc(OC)c1OC	1.58%
CCn1c(C(C)NC(=O)c2ccccc2)nc2ccccc21 (stereo not shown)	17%
COc1ccc(Br)cc1C1C2=C(O)CC(C)(C)CC2=Nc2nc(SC)nn21 (stereo not shown)	-3.37%
c1nc2cc(Cc3ccc4[nH]cnc4c3)ccc2[nH]1	0.628%
O=C(Nc1cccc(C(F)(F)F)c1)NC1(c2ccccc2)CC1	1.93%
COc1ccc(-c2nc(CS(=O)(=O)CC(=O)NCCN(C)C)c(C)o2)cc1	-0.138%
COc1ccc(-c2nn(CCC(=O)NCc3cccs3)c3nc(C)cc(C)c23)c(OC)c1	2.39%
O=C1NN=C(c2ccccc2)CC1c1c[nH]c2ccccc12 (stereo not shown)	-3.62%
CCOCCCNC(=O)Cn1cnc2onc(C)c2c1=O	-1.79%
CC(C)CNC(=O)c1ccc(C(=O)NCC(C)C)cc1	1.64%
c1ccc(C2=NN(c3ccccc3)N(c3ccccc3)N2)cc1	-0.744%
CCn1c2ccccc2c2cc(CNc3ccccc3C)ccc21	-10.6%

SMILES	% Inhibition @ 10 uM
Cc1ccc(S(=O)(=O)NCc2ccc(C(=O)N3CCN(c4ncccn4)CC3)cc2)cc1	0.718%
O=C(NCc1ccccc1)/C(=C/c1cc(-c2ccccc2)nn1-c1ccccc1)NC(=O)c1ccccc1	-5.38%
COc1ccc2cc3c(N)nn(C(=O)c4ccco4)c3nc2c1	2.19%
COc1ccc2c(c1)nc(CN1CCOCC1)n2C	0.883%
COc1ccccc1-c1cc(C(=O)Nc2cccnc2)no1	1.37%
Cc1noc(/C=C/c2cccs2)c1S(=O)(=O)N1CCC(C(=O)NCc2ccc(F)cc2)CC1	-1.28%
Cc1ccc(-c2cc(C(F)(F)F)n3nc(C(=O)NCc4cnn(C)c4C)cc3n2)cc1	-8.23%
N#C/C(=C/C=C/c1ccccc1)c1nc(-c2ccc(Br)cc2)cs1	3.53%
CC1CC2=C(CC1COC(=O)Nc1ccccc1)C(C)(C)CCC2 (stereo not shown)	2.26%
O=C(NCCO)C1CCN(S(=O)(=O)c2ccccc2)CC1	0.147%
CCOc1ccc(CCNCc2c(C(=O)O)c(C)n(Cc3cccc(Cl)c3)c2C)cc1OCC	2.99%
Cc1ccc(-n2nnc(-c3nsc(NC(=O)c4cccs4)n3)c2C)cc1Cl	-0.127%
O=C(O)C1CSC2(CCCCC2)N1 (stereo not shown)	6.4%
c1ccc2cc(OCCCCn3ccnc3)ccc2c1	-3.15%
COc1ccc(C2=NC3(CCN(S(=O)(=O)c4ccc(F)cc4)CC3)N=C2SC)cc1	-2.5%
CC(=O)Nc1nc(C)c(-c2csc(NCc3ccccc3)n2)s1	6.27%
Cc1cc(Cl)ccc1OCCCCCN1CCNCC1	-7.5%
CN1CCN(CC(O)c2ccccc2)CC1 (stereo not shown)	-0.436%
CC1=CC(C)(C)N(C(=O)CN2C(=O)c3ccccc3C2=O)c2cc(C)ccc21	-14.6%
Fc1cccc(CSc2nc3cccnc3[nH]2)c1	0.693%
